Measured values reported in PubChem BioAssay AID1865 (National Center for Advancing Translational Sciences (NCATS), 2009).
Several values for one entry are separate records, joined by “and”; a condition that tells them apart may be missing. Equal entries are not always repeated. In all, about 280,000 compounds went through this assay and about 540 (0.19%) were called active. The inconclusive results got no clear call from the source; some entries with a clear call stand among them for comparison. Calls come from the whole dose curve; as a rule, active = well fitted activation curve with a large enough effect; inconclusive = small, poorly fitted or top-dose-only effect; inactive = flat fitted curve, though single readings scatter. A potency beside an inconclusive call is a rough fit, not a confirmed value.
Potency is the fitted concentration of half-maximal effect; tags give direction and shape of the fitted curve.

Assay: Quantitative High-Throughput Screen for Regulators of Epigenetic Control; note: nearly all actives have a fitted effect of over 60% in size; for GFP activation: % of control where 0% means no effect
Settings: murine LDR cells, GFP reporter derepression, 30 h; GFP activation: at 53.9 µM (top of the series)
Procedure, shortened: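 In this reporter-derepression format, murine cells bearing a silenced integrated CMV-GFP locus incubate with test compound (30 h, 37 C), then are washed and imaged; fluorescent objects of 20–120 um count as induced cells.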
In the case of CCC1=C2CC[C@H]3C(=O)N(c4ccccc4)C(=O)[C@H]3[C@H]2[C@@]2(C)C(=O)N(Cc3ccccc3)C(=O)N2C1=O, the “GFP activation” value is reported as inactive: -1.31%.
In the case of CN(C)c1ccc(CNC(=O)C2CCN(C(=O)c3ccc(-n4ccc5ccccc54)s3)CC2)cc1, the Potency is reported as inconclusive: 35.5 µM [activator, single point].
For CC(C)(C)OC(=O)N1CCC(c2c(C(=O)N3CCN(c4ncccn4)CC3)cnn2-c2ccc(F)cc2)CC1, the “GFP activation” value was inactive: 0%.
For O=c1cc(-c2ccccc2)[nH]c2nc(Cl)ccc12, the Potency was inconclusive: 31.6 µM [activator, single point].
In the case of CC(=O)c1sc2nsc(SCCN3CCCC3)c2c1N, the Potency is reported as inconclusive: 35.5 µM [activator, single point].
In the case of Cc1ccccc1CN1CCC(CNc2ncnc3onc(-c4ccc(Cl)cc4)c23)CC1, the “GFP activation” value is reported as inactive: -1.27%.
In the case of Cc1ccc2nc(/C(C#N)=C/c3cccc(Br)c3)[nH]c2c1, the Potency is reported as inconclusive: 31.6 µM [activator, single point].
In the case of CCCN(CCC)CCCNC(=O)c1cc2c(=O)oc3ccc(C)cc3c2s1, the Potency is reported as inconclusive: 31.6 µM [activator, single point].
With O=C(CSc1nnc(COc2ccc(Cl)cc2)o1)Nc1ccccc1 the Potency was inconclusive: 35.5 µM [activator, single point].
With COc1ccc2c(C(=O)CN3CCN(c4ccccc4)CC3)c[nH]c2c1 the Potency was inconclusive: 31.6 µM [activator, single point].
In the case of CC(=O)Nc1sc(C)c(C)c1C(=O)OCC(=O)Nc1cc(S(C)(=O)=O)ccc1Cl, the Potency is reported as inconclusive: 35.5 µM [activator, single point].
For Nc1cccc(-c2nc3cc(S(=O)(=O)c4ccc5oc(-c6cccc(N)c6)nc5c4)ccc3o2)c1, the Potency was inconclusive: 14.1 µM [activator, partial curve].
With COc1ccc(-n2c(=O)/c(=C\c3cccs3)s/c2=C(/C#N)C(=O)N2CCN(C)CC2)cc1 the Potency was inconclusive: 35.5 µM [activator, single point].
For O=C(Cn1c(=O)n(Cc2ccco2)c(=O)c2ccc(C(=O)NC3CCCC3)cc21)Nc1ccc(F)cc1, the Potency was inconclusive: 35.5 µM [activator, single point].
With CC(C)Oc1cccc(NC(=O)C2CCN(S(=O)(=O)Cc3ccccc3)CC2)c1 the “GFP activation” value was inactive: -1.54%.
With O=C(Nc1cccc(F)c1)c1coc(=O)c(Br)c1 the Potency was inconclusive: 31.6 µM [activator, single point].
With COc1ccc(-c2[nH]n(-c3ccc([N+](=O)[O-])cc3)c(=O)c2C=NCc2ccc(F)cc2)cc1 the Potency was inconclusive: 25.1 µM [activator, single point].
With Cc1ccc(CN2C(=O)N/C(=C\c3ccc(N4CCOCC4)cc3)C2=O)cc1 the Potency was inconclusive: 17.8 µM [activator, single point].
For CCOC(=O)C1=C(O)c2ccccc2C(=O)/C1=C\c1ccc(C)cc1, the Potency was inconclusive: 28.2 µM [activator, single point].
With COCCNC(=O)CSc1c2c(nc3cc(Cl)ccc13)CCCC2 the Potency was inconclusive: 31.6 µM [activator, single point].
In the case of O=C(/C=C/c1ccccc1)c1cccs1, the Potency is reported as inconclusive: 35.5 µM [activator, single point].
In the case of O=C1Cc2c([nH]c3ccc(Br)cc23)-c2ccccc2N1, the Potency is reported as inconclusive: 35.5 µM [activator, single point] and inconclusive: 25.1 µM [activator, single point].
With Cc1cc(C)cc(N=c2c([N+](=O)[O-])nn(-c3ccc4c(c3)OCCO4)n2O)c1 the Potency was inconclusive: 35.5 µM [activator, single point].
For Cc1ccc(-c2n[nH]c(=S)n2/N=C/c2ccc(C)o2)cc1, the “GFP activation” value was inactive: 0%.
For O=C1N(Cc2cccnc2)C[C@@H]2C[C@@H](c3cccc(OCc4ccccc4)c3)N3CCC[C@@]123, the “GFP activation” value was inactive: -0.13%.
In the case of CCOCCCNC(=O)/C(C#N)=C/c1ccc([N+](=O)[O-])o1, the Potency is reported as active: 3.98 µM.
In the case of COc1ccccc1N/C=C/c1onc(C)c1[N+](=O)[O-], the Potency is reported as inconclusive: 3.16 µM [activator, partial curve, poor fit].
In the case of Cc1cccc2cc(C#N)c(SCC(=O)NCC3CCCO3)nc12 (stereo unspecified), the Potency is reported as inconclusive: 35.5 µM [activator, single point].
With COc1ccc(-c2nc(-c3ccccc3)c(NC(C)(C)C)o2)cc1 the Potency was “inactive”.
For CCCCC(=O)NC(c1cccs1)c1cc(Cl)c2cccnc2c1O (stereo unspecified), the Potency was inconclusive: 35.5 µM [activator, single point].
With Cc1cccc(NC(=O)C2CCCN(S(=O)(=O)c3cccc4nonc34)C2)c1C (stereo unspecified) the Potency was inconclusive: 31.6 µM [activator, single point].
For CCn1c(SCC(=O)c2ccc(Cl)cc2)nnc1-c1ccoc1C, the Potency was inconclusive: 35.5 µM [activator, single point].
For Cn1cc(/C=N/NC(N)=S)c2ccccc21, the Potency was inconclusive: 35.5 µM [activator, single point].
With CCCS(=O)(=O)c1ncc(Cl)c(C(=O)N2CCN(c3ccc(OC)cc3)CC2)n1 the Potency was inconclusive: 5.01 µM [activator, single point].
With CCN(C(=O)COC(=O)c1c(C)noc1C)C1CCS(=O)(=O)C1 (stereo unspecified) the “GFP activation” value was inactive: -0.233%.
For COc1ccc(NC(=O)c2c(NC(=O)CNCc3ccco3)sc3c2CCC3)cc1, the Potency was active: 25.1 µM.
For CCCCNC(=O)CCC(=O)NNc1nc2ccccc2c2nc(-c3ccccc3)nn12, the Potency was inconclusive: 35.5 µM [activator, single point].
In the case of CCN(CC(=O)Nc1cc(C)c(Cl)cc1OC)CC(=O)NC1CCS(=O)(=O)C1 (stereo unspecified), the “GFP activation” value is reported as inactive: -6.11%.
With COc1cc(NC(=O)c2c(-c3ccc(C)cc3)nnc3ccccc23)cc(OC)c1OC the Potency was inconclusive: 12.6 µM [activator, partial curve].
In the case of COc1ccc(/C=C(/C#N)c2nc(-c3ccc(-c4ccccc4)cc3)cs2)cc1OC, the Potency is reported as active: 10 µM.
With COc1cc2c3nnc(-c4ccc(F)cc4)c-3cn(Cc3ccccc3F)c2cc1OC the Potency was active: 6.31 µM.
